# Source: the supplement of paper PMC3334620
# In all, about 33,000 sequences were measured (“E-score (-0.5 to 0.5)”: median about -0.04, highest 2% from about 0.36 on). This is one part of the list.
# Biological target: T1, Hmlalpha2 (UniProt P0CY09)
# T1 sequence: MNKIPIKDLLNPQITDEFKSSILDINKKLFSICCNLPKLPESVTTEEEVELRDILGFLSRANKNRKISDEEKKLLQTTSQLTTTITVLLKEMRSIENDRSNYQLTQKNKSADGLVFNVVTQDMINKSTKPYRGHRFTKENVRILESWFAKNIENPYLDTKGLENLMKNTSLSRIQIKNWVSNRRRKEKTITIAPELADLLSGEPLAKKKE
# Assay: PBM E-score (8-mer binding enrichment) (E-score (-0.5 to 0.5)); higher = stronger / more preferred TF binding; most listed sequences are background and not binding sites
# Conditions: protein concentration: 200 nM; construct: GST-full length
# Summary of the method: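 Bound GST-tagged yeast transcription factors, applied at about 100-200 nM to double-stranded universal all-10-mer Agilent arrays, were detected with fluorescent anti-GST. Scans were normalised with masliner. A modified Wilcoxon-Mann-Whitney statistic, the E-score, was assigned to each ungapped eight-base word pooled with its reverse complement by the Universal PBM Analysis Suite.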
row,Sequence,PBM E-score
1,CATATGGG,-0.201
2,AGATGCCT,0.00433
3,CAAATCAC,-0.0967
4,AGTAAACG,0.156
5,CGATGAAA,0.0433
6,AGGGGCGG,-0.305
7,ATAGCTGG,-0.121
8,ACCTAGCG,0.0123
9,CAATAGGG,-0.0586
10,CGAGTCCC,-0.234
11,ACATTGTC,0.275
12,AAACCCAC,0.0656
13,CCGCTGTC,-0.123
14,CACGTAAG,0.244
15,AAGCCTGC,-0.0985
16,CCAGCAAA,-0.109
17,TATACCGA,-0.0588
18,ATTGACAA,0.269
19,AAATACTA,0.16
20,AAATTTGC,-0.00054
21,GTCTGGTA,-0.079
22,TCTACCCA,-0.108
23,GGCTCGAA,-0.149
24,GATGAAGC,-0.157
25,GAGGACCC,-0.195

row,Sequence,PBM E-score
1,ATAATCAG,0.133
2,CATGGGTA,0.129
3,CGTATGAC,0.222
4,AAAAATTC,0.179
5,ACACGTTA,0.408
6,AAAAGCAC,-0.209
7,ACCATAGC,-0.191
8,TAACAACA,0.335
9,CTTGTTGC,0.189
10,ATTAGCCG,-0.0931
11,CACGTGCG,0.133
12,CACCTCCA,-0.063
13,ATGTAGAC,0.391
14,ATAGTTAG,-0.123
15,GTATTGTA,0.322
16,TAGGATGA,-0.088
17,AGCTCTAA,-0.136
18,CTCAAGAG,-0.366
19,AGACACCT,-0.146
20,CACTAATA,0.146
21,AGCATGCA,0.023
22,CCTTACCG,-0.0286
23,ATATTGTA,0.184
24,CACACGGA,0.0896
25,CTGCGACA,-0.0456

row,Sequence,PBM E-score
1,GGGCTACC,-0.243
2,ATTGGACA,0.0505
3,CAATGATC,-0.093
4,ATAGTACG,-0.0111
5,AAGCCAAG,-0.228
6,CATCGATG,0.268
7,ATACCAGG,-0.0417
8,AGATTAAC,0.188
9,CCACGGGC,-0.165
10,CTCTCAGC,-0.149
11,AGTTTGAA,-0.0108
12,CCCGCTCG,-0.199
13,ACAATTGA,0.137
14,ACGCAGAA,0.152
15,GTTTAAGA,0.014
16,ACCGCAGC,-0.316
17,CGCGGTCA,-0.134
18,ACTTACAG,0.134
19,ACTTAGTA,0.217
20,GAACCTAC,0.0683
21,ACATCGGG,-0.119
22,AAGCCTGA,-0.241
23,GTACTAGA,0.229
24,GCTGACAA,0.165
25,AAAATCCC,-0.173

row,Sequence,PBM E-score
1,CTTGCAAC,0.228
2,GCCGCAAC,-0.0377
3,ATACAGAG,0.0854
4,AGTACGTG,0.154
5,GGTGCCCA,-0.178
6,ATCAACGC,0.316
7,CTCAGGCA,-0.243
8,AGAAGAAG,-0.165
9,CCAGCTAG,-0.00523
10,GATAGCGA,-0.126
11,CCTGTGCC,-0.221
12,CTGGTCCA,-0.174
13,ATACCGCA,-0.0973
14,CCGATGCA,-0.155
15,AATACGAT,0.238
16,CCGGATCA,-0.0165
17,GTTGGCGA,-0.0755
18,CTCTACTA,0.0969
19,ATACAGGG,0.0701
20,CAGTCTCG,-0.142
21,ATACGCGA,0.346
22,ACCGTTGA,-0.148
23,CTGACCCC,-0.308
24,ACACTTAT,0.0619
25,CACTTCAG,-0.031

row,Sequence,PBM E-score
1,AATCCTCT,0.00028
2,ACCGTACT,-0.0265
3,CATATCGA,-0.0723
4,CAGGCGGC,-0.169
5,GGTTGGGA,-0.224
6,CTCAACAC,0.382
7,AACACAGC,0.379
8,CGGCTTGC,0.0109
9,CCACTCCC,-0.404
10,ATCTATAC,0.0772
11,GACATCAA,0.0495
12,CTCCCGCA,-0.176
13,GGTAGTAC,-0.0481
14,ACCCACCC,-0.0404
15,TGAAAACA,0.317
16,AGAAAGCA,0.0106
17,AACACAAG,0.326
18,ACTTGTGA,0.148
19,ATTCGAGA,-0.0114
20,AAGGTATG,0.0872
21,GGAAGGAA,-0.243
22,AGTCCCTC,-0.253
23,GCCCGAAC,-0.268
24,ACTCCGTC,-0.0399
25,CCTCAACC,-0.0829

row,Sequence,PBM E-score
1,AGCTAGCC,-0.134
2,AAGTGGGA,0.0175
3,CTCTCGGC,-0.226
4,GAGAAAGA,-0.108
5,TCTAGGAA,-0.134
6,CGAAAACC,0.0241
7,CGTTAACC,0.241
8,AATATTAT,0.189
9,AGCCATCA,-0.055
10,GACTGAAA,-0.0472
11,AGATACTA,-0.161
12,AGGCCCTA,-0.127
13,GAACAGCC,-0.178
14,ACATTCGG,0.133
15,ACTAGTAA,0.235
16,AGAGTCAC,-0.124
17,CACTTGGA,-0.0936
18,CAGGTAGG,-0.225
19,TGACTACA,0.286
20,AACCATAC,-0.176
21,CTCCCTCC,-0.389
22,CAACTGCG,-0.126
23,GAGCAAAA,-0.094
24,ATCCAGGA,-0.118
25,CACTACGC,0.0484

row,Sequence,PBM E-score
1,GGCGAAAC,-0.0216
2,TGGATCCA,-0.063
3,GTAGATGA,0.192
4,GATCCCAC,-0.174
5,ATTTGCGC,0.055
6,AGTGTTAT,0.269
7,AATCTTAG,-0.0585
8,AAAGAGGG,-0.174
9,AGCGCTAC,-0.045
10,CTGCCATA,-0.218
11,AGCATATC,-0.0175
12,AATATTGT,0.23
13,GCGTTTGA,0.00157
14,AATCTAAC,0.16
15,TAACCATA,0.0693
16,ATGATCCA,-0.191
17,ACACCATA,0.0945
18,CCCATCTA,-0.109
19,ACTACGTA,0.212
20,CTACGTGA,0.123
21,CCCGAGAG,-0.302
22,CCCAACTA,-0.132
